# Test results reported in the supplement of paper PMC3334620.
# Over roughly 33,000 sequences, “E-score (-0.5 to 0.5)” has its median near -0.04; the highest 2% begin near 0.36. The list shows a part of the results.
# Target: T1, Hmlalpha2 (UniProt P0CY09)
# T1 sequence: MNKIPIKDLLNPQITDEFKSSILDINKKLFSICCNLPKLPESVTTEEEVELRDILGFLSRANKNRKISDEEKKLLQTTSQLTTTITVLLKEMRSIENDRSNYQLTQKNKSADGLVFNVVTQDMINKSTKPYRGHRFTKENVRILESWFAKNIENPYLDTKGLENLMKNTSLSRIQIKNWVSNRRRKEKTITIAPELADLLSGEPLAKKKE
# Assay: PBM E-score (8-mer binding enrichment) (E-score (-0.5 to 0.5)); higher = stronger / more preferred TF binding; most listed sequences are background and not binding sites
# Conditions: protein concentration: 200 nM; construct: GST-full length
# Experimental: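 Universal 'all 10-mer' protein binding microarrays (Agilent AMADID 015681) probed with GST-tagged S. cerevisiae TFs (full-length or DBD) made by in vitro transcription/translation (PURExpress), about 100-200 nM. Bound TF was detected with fluorescent anti-GST. Each ungapped 8-mer (which stands for itself and its reverse complement) is scored by the PBM enrichment score (E-score), a modified Wilcoxon-Mann-Whitney statistic from -0.5 to +0.5, computed with the Universal PBM Analysis Suite. Scale: above 0.35 generally sequence-specific binding.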
row,Sequence,PBM E-score
1,AGGTGGGC,-0.148
2,AGTCGAAT,-0.234
3,ACCCACCT,-0.287
4,CCTGTCAC,-0.135
5,ATTTCGTC,0.0444
6,TATAACAA,0.254
7,GTGAAGTA,0.0578
8,CCCGAGGG,-0.197
9,CCTGTACC,-0.107
10,AATGAGAA,0.0317
11,CCGACAAC,-0.00545
12,AACTTAGT,0.0856
13,ATCATGTG,0.209
14,CGGGATAC,-0.16
15,GGCTCCCC,-0.389
16,ATAATGCG,0.177
17,ACTGATCG,0.00936
18,GCCTGGGA,-0.143
19,AAACTACA,0.362
20,ACGGCAGA,-0.12
21,CATCGAAC,-0.161
22,CTCCCAGA,-0.181

row,Sequence,PBM E-score
1,ACAGAAGC,-0.0384
2,GCCATGGC,-0.224
3,GAGGGGGA,-0.277
4,ATACGAAC,0.175
5,AGCACCCA,-0.176
6,AGTTCCTA,0.075
7,CCGTCAGA,-0.332
8,CCGCCGGC,-0.218
9,ACTGAAAC,0.13
10,CTTTCCCC,-0.128
11,ACACAAAA,0.305
12,AGCTGCTG,-0.158
13,ATGTTGTA,0.406
14,ACTGTGTG,0.128
15,AACCTAGT,-0.0074
16,ATTTTTAC,0.368
17,ACAGTAGT,-0.0296
18,CGTCTATA,-0.0303
19,CACGACCC,-0.031
20,GCGTAGAA,0.313
21,GGAAAGGA,-0.209
22,AAGTGTGT,0.303

row,Sequence,PBM E-score
1,GACCTAAC,-0.00144
2,AACGCCGG,-0.111
3,CTAAACGA,0.0213
4,CTTCTCGA,0.0282
5,ATCTGGTG,-0.123
6,CATATAGA,0.183
7,ACGCGATC,0.299
8,ATGCCCAA,-0.137
9,GAGACACC,-0.137
10,AGTCTGAT,-0.12
11,CGAGGACA,-0.168
12,GCCGATGA,-0.321
13,GGCTTCAC,-0.283
14,TAATCACA,0.221
15,ACGAAAGC,-0.00153
16,ATGAACCG,-0.043
17,CCCCGAAA,-0.0303
18,ACCTTAAG,-0.14
19,AATCGTCG,-0.121
20,CGACCCCC,-0.311
21,GAGGTCAC,-0.239
22,ACCGGTGG,-0.44

row,Sequence,PBM E-score
1,GGACTCAC,-0.291
2,CCACAGAC,-0.178
3,AATGACCG,-0.213
4,CCGTCGAC,-0.122
5,CCCCAGGA,-0.24
6,GCTGATAC,-0.113
7,ACGTTGAC,0.235
8,AGAAGCTA,-0.0858
9,CAAGGCGG,-0.0686
10,ATACCCAA,0.0932
11,GCAGGTAA,0.16
12,GTCCCCAA,-0.225
13,AATGGCAC,-0.204
14,ACACGCCT,0.374
15,CTCGCGCA,-0.164
16,GTGGTAGA,-0.185
17,AATGCGCG,0.197
18,ATCTGCTA,0.0607
19,GTTCTAAA,0.0256
20,CGGAGTTA,-0.00265
